The list shows a part of the results.
What follows are sequences tested on PfHDP1 homeodomain (GST-tagged) (assay: gcPBM binding intensity (ln(normalized median fluorescence intensity)); higher = stronger DNA binding).
Method in brief: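 After 1 h on an Agilent 4 × 180k array of primer-extended double-stranded 36-bp intergenic genomic probes and negative controls, bound GST-tagged P. falciparum DNA-binding domains were detected with Alexa488 anti-GST antibody and scanned at 488 nm. The domains had been expressed in E. coli, and binding took place in 1× PBS with 1% milk, 0.2 mg/ml BSA, 0.5% salmon testes DNA and 0.03% Triton X-100. Binding intensity is the highest Masliner-normalised natural-log median intensity across replicate spots of either probe orientation.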

Sequence | gcPBM binding intensity (ln)
AGGAGGTCAGTTCACAGTACCCAGGAAATCTACGGA [XGTACX_site2552] | 5.92
AAAAATAAAATAAAGAAGGAAAATAAAAAAATAAGG [CACACA_negctrl_site1811] | 6.87
AAACATAAGAGACACACACACATATATAAATAAATA [CACACA_site7674] | 6.75
AATTTCATAAATATAACTGAGAATAAATAAACAAAG [GTGCAC_negctrl_site146] | 6.69
TGAACACACGAGCACACACACACATCTATATTTATA [CACACA_site6607] | 7.6
TGGAATAATACGCGTACACACATATATATATTAATA [CACACA_site131] | 6.98
AGGTATCAAAAATATGCATGCAATATTTTATGTAAT [TGCATGCA_site1055] | 6.69
ATATAAAAATGTGTATGTACACACTTTATTTTTAAT [XGTACX_site5272] | 6.46
AAATTACAAATACAAACACACAAATGTTTTTCATTC [CACACA_site3552] | 6.27
TTTTTCTATAAAAAATGTACATATTTTATGAAGGAA [XGTACX_site821] | 6.5
TTAAAAAACCTTAGATGTACAGTTATATATAAAATA [XGTACX_site6688] | 6.37
ATCCTTTATTTTTTTTGTACATAAAAATAACTCGAG [XGTACX_site3885] | 6.94
CACCTTATAAATACTGCACACATAAAATATATATTA [CACACA_site8908] | 8.76
ACATATAAATATATTACACACACACTAAAAAAATAA [CACACA_site6209] | 7.01
CTTATCAAAAAAAAAGCATGCCACAGGCAAAAGGTA [TGCATGCA_site574] | 6.39
ATATATATATATATATGTACATATATACATATACAT [XGTACX_site2350] | 9.29
AAAAAAAAATTAATATATAAAAGGATATATATATAT [GTGCAC_negctrl_site449] | 8.92
GAATAATATATATATTGTACTTTTTATTTATATTAT [XGTACX_site3180] | 6.47
AAAATATAATATAATGCACACATAAAACAAAAAAAA [CACACA_site8989] | 9.76
CTTTTTTTTTTTTTTACACACCCAAATCACATACAT [CACACA_site4051] | 6.93
ATATATATATTTATATGTACGAAATATAAAAAAAAA [XGTACX_site5054] | 7.18
TATATATATATGTGTACACAATTTATCTGTATTTAT [CACACA_site5945] | 8.86

Sequence | gcPBM binding intensity (ln)
AAAAAAAAAAAAATACGTACATACATACCTACATAT [XGTACX_site233] | 6.34
AAGAAAAACTTTACGTGTACCAAACATCCTGCCAAC [XGTACX_site598] | 6.89
AGTGATACTAATTTTTGTACGCATAAAAGAATATTC [XGTACX_site6055] | 6.76
TATATTGATGATGATAGTACGTATGATTAGAAAAAA [XGTACX_site8989] | 6.58
ATAGACAGCGCACAAACACACAAACACCCACCCACA [CACACA_site8043] | 7.63
CATTAATAAAAAAAAAGTACAAAAAATATATATATT [XGTACX_site2091] | 6.88
AAAATAAAAATATTCACACATACAAAAATTATACAA [CACACA_site5136] | 6.48
ATAATATATATATATAGTACATATATATAATATTCT [XGTACX_site2445] | 6.2
ATTTTTTTACTGTAACCATATTTTTCCCTTTTATTC [CACACA_negctrl_site1143] | 6.81
TTTTTTTTTTTTTTTTGTACGTATCAAAAAATTTGT [XGTACX_site1023] | 6.28
AATCAATAAATAAAAACATGCATATATATATATATA [TGCATGCA_site438] | 9.42
AAAAATAAATTTAGTTGTACTTTATTATTTTAAATA [XGTACX_site3067] | 5.98
AAGACTTCTCCATATACACACACCAACAAATATAAA [CACACA_site2779] | 6.87
GTTTATTCATCATACGGTACACATAAATAATATATA [XGTACX_site6931] | 6.85
GTGCATATACAAATATGTACTTAAACGTTTTTTTTT [XGTACX_site7362] | 6.67
TTTTTCTTTTGATGTTGTACATATATATCATATAAT [XGTACX_site1189] | 6.5
TTCGTTTAAATCAAGTGTACATATTATATATAATAT [XGTACX_site7599] | 6.47
ATTTTTTTTTTTTTTTTTTGGTTTTCTTTAGGAGTT [CACACA_negctrl_site1258] | 5.85
GATGAATAAATCAAAGCACACATACACCCACATATA [CACACA_site7986] | 6.98
GAAATAAGTTAAAATAGTACGTAGTGTTCCTTAAGT [XGTACX_site6557] | 6.3
CGTTATATATGTATTACATGCAATATATGTACGTAA [TGCATGCA_site274] | 6.44
TAAATAATATCCCTTTGTACGTATTTTTTTTTATTA [XGTACX_site7303] | 6.51
